In a collection of fitness landscapes (doi:10.1126/science.1257360) one finds enrichment ratio data, which are given here for 195 variants.

Some of the results follow.

B1: PhoQ; a variant is named by its letters at X, in order, P23837 (parent)
chain: MKKLLRLFFPLSLRVRFLLATAAVVLVLSLAYGMVALIGYSVSFDKTTFRLLRGESNLFYTLAKWENNKLHVELPENIDKQSPTMTLIYDENGQLLWAQRDVPWLMKMIQPDWLKSNGFHEIEADVNDTSLLLSGDHSIQQQLQEVREDDDDAEMTHSVAVNVYPATSRMPKLTIVVVDTIPVELKSSYMVWSWFIYVLSANLLLVIPLLWVAAWWSLRPIEALAKEVRELEEHNRELLNPATTRELTSLVRNLNRLLKSERERYDKYRTTLTDLTHSLKTPLXXLQXXLRSLRSEKMSVSDAEPVMLEQISRISQQIGYYLHRASMRGGTLLSRELHPVAPLLDNLTSALNKVYQRKGVNISLDISPEISFVGEQNDFVEVMGNVLDNACKYCLEFVEISARQTDEHLYIVVEDDGPGIPLSKREVIFDRGQRVDTLRPGQGVGLAVAREITEQYEGKIVAGESMLGGARMEVIFGRQHSAPKDE

In the assay the parent is B1. Kind of assay: enrichment ratio after two sorts for PhoP signalling (ratio (wild type AVST 3.29)); higher = more functional. As to conditions: with PhoP (E. coli).
Turning to MKNK, the enrichment ratio was ≤ 0.25.

As for RLEA, the enrichment ratio is ≤ 0.25.

Take IFCQ: the enrichment ratio was ≤ 0.25. With PESN the figure was ≤ 0.25; with PPQM, ≤ 0.25; with MDYM, ≤ 0.25. The same measure for VCHT: ≤ 0.25; for RVAD: ≤ 0.25; for DPYE: ≤ 0.25. On to AMIV, for which the enrichment ratio was ≤ 0.25.

As for EAMR, the enrichment ratio was ≤ 0.25. With PASM the figure was ≤ 0.25; with FQFR, ≤ 0.25; with VKHY, ≤ 0.25. The same measure for DIYK: ≤ 0.25; for SNLK: 3.7; for SSAW: ≤ 0.25. On to GWSV, for which the enrichment ratio was ≤ 0.25. With GHPW the figure was ≤ 0.25; with THRA, ≤ 0.25; with FPAN, ≤ 0.25. The same measure for HYWP: ≤ 0.25; for HFDI: ≤ 0.25; for TCFR: ≤ 0.25. Take RNWD: the enrichment ratio was ≤ 0.25. With FRDD the figure was ≤ 0.25. On to KKWR, for which the enrichment ratio was ≤ 0.25.

DWGA: the enrichment ratio was ≤ 0.25.

For the variant SNVY, the enrichment ratio worked out at 1.11. On to AHFM, for which the enrichment ratio is ≤ 0.25.

Turning to YLFQ, the enrichment ratio was ≤ 0.25. With VSNC, the enrichment ratio was ≤ 0.25. The same measure for QCPW: ≤ 0.25. The same measure for WIVA: ≤ 0.25; for TCMF: 26.2. The same measure for LWER: ≤ 0.25. As to HWKN, the enrichment ratio is ≤ 0.25.

Consider FKEL, for which the enrichment ratio was ≤ 0.25. With GSIV the figure was 8.6; with DPTC, ≤ 0.25; with YMQI, ≤ 0.25. The same measure for DNRC: ≤ 0.25. Take PAEV: the enrichment ratio is ≤ 0.25. The same measure for QHYW: ≤ 0.25. With HRNE the figure was ≤ 0.25; with SYRP, ≤ 0.25; with RFSP, ≤ 0.25. TKRN: the enrichment ratio is ≤ 0.25. The same measure for WQPA: ≤ 0.25. The same measure for AWMV: ≤ 0.25; for YEFM: ≤ 0.25. With MSMR the figure was ≤ 0.25; with NAIW, ≤ 0.25. SSHC: the enrichment ratio is ≤ 0.25.

Consider QLTQ, for which the enrichment ratio is ≤ 0.25. Take PVDF: the enrichment ratio came to 0.502. The same measure for ASWE: ≤ 0.25; for HKHP: ≤ 0.25; for VPNL: ≤ 0.25. With SIPS the figure was 0.688. The same measure for EFKT: ≤ 0.25; for NTKC: ≤ 0.25. For NLLC, the enrichment ratio was ≤ 0.25. With RMYY the figure was ≤ 0.25; with PYPF, ≤ 0.25; with NGGF, ≤ 0.25.

For the variant EFPI, the enrichment ratio is ≤ 0.25.

On to VFHD, for which the enrichment ratio was ≤ 0.25. With FIHV the figure was ≤ 0.25; with AWSL, ≤ 0.25; with YKHG, ≤ 0.25. With PTGE the figure was ≤ 0.25; with LKYC, ≤ 0.25. With FPDL the figure was ≤ 0.25.

With TMER, the enrichment ratio was ≤ 0.25. The same measure for WETK: ≤ 0.25; for YRCW: ≤ 0.25; for QSVM: ≤ 0.25. With WSVV, the enrichment ratio was ≤ 0.25. As to VSQK, the enrichment ratio is ≤ 0.25.

Consider IWRL, for which the enrichment ratio is ≤ 0.25.

FMWT: the enrichment ratio is ≤ 0.25.

Take KMLE: the enrichment ratio was ≤ 0.25. With STRS the figure was 0.355.

As to YVCR, the enrichment ratio was ≤ 0.25. With QKNV the figure was ≤ 0.25; with QGCT, ≤ 0.25.

In the case of LEQC, the enrichment ratio is ≤ 0.25.

Take ALEP: the enrichment ratio is ≤ 0.25. As to DVCW, the enrichment ratio is ≤ 0.25.

DLIF: the enrichment ratio is ≤ 0.25. The same measure for NFWT: ≤ 0.25; for ANVS: 7.14; for MALC: 7.69. With FWDQ the figure was ≤ 0.25.

Regarding TQGS, the enrichment ratio worked out at 10.5. The same measure for YRGS: 0.346; for TMFP: ≤ 0.25; for GKIF: ≤ 0.25.

As to APVL, the enrichment ratio was ≤ 0.25. With NGYC the figure was ≤ 0.25; with FMFR, ≤ 0.25. With RVYM the figure was ≤ 0.25. With IIRW the figure was ≤ 0.25; with RLHG, ≤ 0.25.

For the variant YKAG, the enrichment ratio was ≤ 0.25.

Regarding AFRC, the enrichment ratio is ≤ 0.25. The same measure for SMMH: 15.6; for IIMS: ≤ 0.25; for KYNQ: ≤ 0.25. The same measure for DRRY: ≤ 0.25.

As to YVPD, the enrichment ratio is ≤ 0.25. With KLQT the figure was ≤ 0.25; with VDHM, ≤ 0.25; with HVFP, ≤ 0.25. The same measure for YSIG: ≤ 0.25; for RIGH: ≤ 0.25.

Consider HYYG, for which the enrichment ratio was ≤ 0.25.

Take MWSD: the enrichment ratio was ≤ 0.25. Consider KNSG, for which the enrichment ratio was ≤ 0.25. The same measure for VNLD: ≤ 0.25. The same measure for RAAN: ≤ 0.25; for TDLI: 16.1; for FMWP: ≤ 0.25.

In the case of CSGA, the enrichment ratio was ≤ 0.25.

On to RCDG, for which the enrichment ratio is ≤ 0.25. For the variant YNLC, the enrichment ratio is 1.02. The same measure for LEPF: ≤ 0.25; for PFCR: ≤ 0.25; for PDWT: ≤ 0.25. With NEVG the figure was ≤ 0.25; with SRYK, ≤ 0.25. The same measure for LMNK: ≤ 0.25. For GSFM, the enrichment ratio is ≤ 0.25.

In the case of PDTV, the enrichment ratio is ≤ 0.25. For IAFF, the enrichment ratio was ≤ 0.25. As to DPYA, the enrichment ratio was ≤ 0.25.

For CFSC, the enrichment ratio was ≤ 0.25.

VRQC: the enrichment ratio is ≤ 0.25. With YDTD the figure was ≤ 0.25; with WMSD, ≤ 0.25. The same measure for PRWH: ≤ 0.25. Regarding SCYQ, the enrichment ratio is ≤ 0.25. With FQTD the figure was ≤ 0.25; with VANG, ≤ 0.25; with IEFS, ≤ 0.25. The same measure for VWCD: ≤ 0.25; for RDAW: ≤ 0.25. The same measure for KSCE: ≤ 0.25; for QQRN: ≤ 0.25. As to GYVQ, the enrichment ratio was ≤ 0.25. Turning to RASG, the enrichment ratio was ≤ 0.25. For the variant PKRM, the enrichment ratio was ≤ 0.25. With YMSC the figure was 0.355. With YQFC the figure was ≤ 0.25.

Take LIFP: the enrichment ratio is ≤ 0.25. The same measure for TMIG: ≤ 0.25; for RECS: ≤ 0.25. The same measure for KCCV: ≤ 0.25; for MMSY: 2.46. The same measure for PCWR: ≤ 0.25; for VWHF: ≤ 0.25; for WHPE: ≤ 0.25.

As to LYQR, the enrichment ratio was ≤ 0.25. As for MTGM, the enrichment ratio worked out at 2.05. In the case of AKCY, the enrichment ratio was 5.64.

As for APTD, the enrichment ratio was ≤ 0.25. With TEHP the figure was ≤ 0.25. For the variant LTLA, the enrichment ratio is ≤ 0.25. For the variant FFPM, the enrichment ratio was ≤ 0.25. The same measure for MASV: 5.95. With TMAQ the figure was 9.17; with IIAN, ≤ 0.25; with VYTY, ≤ 0.25. For the variant YDSR, the enrichment ratio was ≤ 0.25. The same measure for YLVW: ≤ 0.25; for FTAH: ≤ 0.25. The same measure for LAAR: 0.313. The same measure for IWAW: ≤ 0.25. Regarding ESKA, the enrichment ratio is ≤ 0.25.

Take FAHH: the enrichment ratio was ≤ 0.25. In the case of WPTA, the enrichment ratio was found to be 14.3.

Turning to ENAQ, the enrichment ratio is ≤ 0.25. With SEWW the figure was ≤ 0.25; with GRTI, ≤ 0.25; with YTCG, ≤ 0.25.

In the case of TFQL, the enrichment ratio was 7.2. The same measure for HETT: ≤ 0.25; for PVGC: ≤ 0.25; for VQHN: ≤ 0.25. The same measure for VWCN: ≤ 0.25. With NQCI the figure was ≤ 0.25; with AFPN, ≤ 0.25; with VIGC, ≤ 0.25. With DRYS, the enrichment ratio was ≤ 0.25.
